The other results are listed elsewhere or left out. Many values rest on one well or one pass, so single values are uncertain.
Legend:
Assay in all cases: cell count relative to DMSO control; melanoma cells; higher = more viable cells
Conditions in all cases: library dose: standard library concentration; 72 h
G361 = system: G361
IPC-298 = system: IPC-298
IST-MEL1 = system: IST-MEL1
LB2518-MEL = system: LB2518-MEL
LOXIMVI = system: LOXIMVI
MEL-HO = system: MEL-HO
MZ2-MEL = system: MZ2-MEL
MeWo = system: MeWo
RPMI7951 = system: RPMI7951
RVH-421 = system: RVH-421
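Also: cells treated in 1,536-well plates, then fixed and DAPI-stained, with nuclei counted from automated high-throughput microscope images.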

| SMILES | cell count (G361) [%] | cell count (IPC-298) [%] | cell count (IST-MEL1) [%] | cell count (LB2518-MEL) [%] | cell count (LOXIMVI) [%] | cell count (MEL-HO) [%] | cell count (MZ2-MEL) [%] | cell count (MeWo) [%] | cell count (RPMI7951) [%] | cell count (RVH-421) [%] |
| --- | --- | --- | --- | --- | --- | --- | --- | --- | --- | --- |
| Cc1cn(-c2cc(NC(=O)c3ccc(C)c(Nc4nccc(-c5cccnc5)n4)c3)cc(C(F)(F)F)c2)cn1 [nilotinib] + Clc1ccc(Nc2nnc(Cc3ccncc3)c3ccccc23)cc1 [vatalanib] (first compound 1 µM, partner dose 10 µM) | 72.8 | 72.1 | 67.2 | 105 | 75.6 | 56 | 62.8 | 59.8 | 59.6 | 74.6 |
| Cc1cc(Nc2cc(N3CCN(C)CC3)nc(/C=C/c3ccccc3)n2)n[nH]1 + CC(C)C[C@H](NC(=O)[C@H](Cc1ccccc1)NC(=O)c1cnccn1)B(O)O [Bortezomib] (first compound 0.2 µM, partner dose 0.005 µM) | 1.22 | 5.9 | 10.6 | 4.35 | 36.1 | 23 | 4.97 | 13 | 5.74 | 5.8 |
| CC(C)C[C@H](NC(=O)[C@H](Cc1ccccc1)NC(=O)c1cnccn1)B(O)O [Bortezomib] + CCCCCCCCCCCC1=C(O)C(=O)C=C(O)C1=O [Embelin] (first compound 0.005 µM, partner dose 6 µM) | 77.1 | 59.8 | 63 | 88.8 | 104 | 77.9 | 88 | 108 | 84.6 | 72.5 |
| Cc1cc(Nc2cc(N3CCN(C)CC3)nc(/C=C/c3ccccc3)n2)n[nH]1 + NCC(=O)Nc1ccc(-n2nc(C(F)(F)F)cc2-c2ccc3c(ccc4ccccc43)c2)cc1 [OSU03012] (first compound 0.2 µM, partner dose 5 µM) | 78 | 63.1 | 92.2 | – | 95 | 91.1 | – | 98.8 | 65.7 | 86 |
| COc1ccc(C2=N[C@@H](c3ccc(Cl)cc3)[C@@H](c3ccc(Cl)cc3)N2C(=O)N2CCNC(=O)C2)c(OC(C)C)c1 [Nutlin-3] + Cc1cc(N2CCOCC2)cc2[nH]c(-c3c(NC[C@@H](O)c4cccc(Cl)c4)cc[nH]c3=O)nc12 [BMS536924] (first compound 0.5 µM, partner dose 1 µM) | 63.1 | 106 | 98.5 | 76.2 | 73.6 | 96.8 | 117 | 78.2 | 126 | 60.3 |
| Cc1cc(Nc2cc(N3CCN(C)CC3)nc(/C=C/c3ccccc3)n2)n[nH]1 + COc1cc2ncnc(Nc3ccc(Oc4ccccc4)cc3)c2cc1OC [SrcI1] (first compound 0.2 µM, partner dose 10 µM) | 83.6 | 87 | 105 | – | 74.8 | 84.7 | – | 80.8 | 36.8 | 114 |
| Cn1c(=O)n(-c2ccc(C(C)(C)C#N)cc2)c2c3cc(-c4cnc5ccccc5c4)ccc3ncc21 + CNC(=O)c1cc(Oc2ccc(NC(=O)Nc3ccc(Cl)c(C(F)(F)F)c3)cc2)ccn1 [sorafenib] (first compound 0.02 µM, partner dose 2 µM) | 57 | 68.5 | 75.6 | – | 115 | 74.2 | – | 58.9 | 80.8 | 76.5 |
| Cc1cn(-c2cc(NC(=O)c3ccc(C)c(Nc4nccc(-c5cccnc5)n4)c3)cc(C(F)(F)F)c2)cn1 [nilotinib] + CCCS(=O)(=O)Nc1ccc(F)c(C(=O)c2c[nH]c3ncc(Cl)cc23)c1F [PLX4720] (first compound 1 µM, partner dose 0.4 µM) | 70 | 109 | 88.8 | – | 117 | 76.5 | – | 130 | 115 | 65 |
| Cc1cc(Nc2cc(N3CCN(C)CC3)nc(/C=C/c3ccccc3)n2)n[nH]1 + Cn1c(=O)n(-c2ccc(C(C)(C)C#N)cc2)c2c3cc(-c4cnc5ccccc5c4)ccc3ncc21 [NVP-BEZ235] (first compound 0.2 µM, partner dose 0.02 µM) | 56.8 | 80.9 | 75.6 | 77.2 | 46.6 | 66.6 | 76.8 | 54.8 | 48.7 | 48.8 |
| Cc1cn(-c2cc(NC(=O)c3ccc(C)c(Nc4nccc(-c5cccnc5)n4)c3)cc(C(F)(F)F)c2)cn1 [nilotinib] + COc1ccc(C2=N[C@@H](c3ccc(Cl)cc3)[C@@H](c3ccc(Cl)cc3)N2C(=O)N2CCNC(=O)C2)c(OC(C)C)c1 [Nutlin-3] (first compound 1 µM, partner dose 0.5 µM) | 61 | 89 | 98 | 58.8 | 77.3 | 79.2 | 77.8 | 100 | 83 | 42.3 |
| Cn1c(=O)n(-c2ccc(C(C)(C)C#N)cc2)c2c3cc(-c4cnc5ccccc5c4)ccc3ncc21 + O=C(O)[C@@H]1[O][Sb](=[O])([O][Sb]2(=[O])[O][C@H]([C@H](O)CO)[C@H](O)[C@H](C(=O)O)[O]2)[O][C@H]([C@H](O)CO)[C@@H]1O [stibogluconate] (first compound 0.02 µM, partner dose 10 µM) | 48 | 66.6 | 88 | – | 68.5 | 66 | – | 71.3 | 115 | 72.9 |
| CC(C)C[C@H](NC(=O)[C@H](Cc1ccccc1)NC(=O)c1cnccn1)B(O)O [Bortezomib] + COc1cc2c(Oc3ccc4[nH]c(C)cc4c3F)ncnc2cc1OCCCN1CCCC1 [cediranib] (first compound 0.005 µM, partner dose 2 µM) | 0.491 | 21.8 | 5.86 | 3.36 | 19.1 | 38.1 | 4.32 | 14.1 | 4.47 | 6.94 |
| CC(C)C[C@H](NC(=O)[C@H](Cc1ccccc1)NC(=O)c1cnccn1)B(O)O [Bortezomib] + Cn1cncc1[C@@](N)(c1ccc(Cl)cc1)c1ccc2c(c1)c(-c1cccc(Cl)c1)cc(=O)n2C [tipifarnib] (first compound 0.005 µM, partner dose 0.05 µM) | 0.965 | 15.5 | 12.4 | – | 9.58 | 49.1 | – | 15 | 4.76 | 11.4 |
| Cn1c(=O)n(-c2ccc(C(C)(C)C#N)cc2)c2c3cc(-c4cnc5ccccc5c4)ccc3ncc21 + CC(C)(C)c1cnc(CSc2cnc(NC(=O)C3CCNCC3)s2)o1 [SNS-032] (first compound 0.02 µM, partner dose 0.05 µM) | 57.5 | 94 | 71.6 | – | 62.4 | 67.4 | – | 63 | 46.7 | 94.2 |
| Cc1cn(-c2cc(NC(=O)c3ccc(C)c(Nc4nccc(-c5cccnc5)n4)c3)cc(C(F)(F)F)c2)cn1 [nilotinib] + O=C(O)c1ccc2c(c1)nc(Nc1cccc(Cl)c1)c1ccncc12 [CX4945] (first compound 1 µM, partner dose 2 µM) | 52.1 | 60.2 | – | 97.7 | 76.6 | 60.8 | 69 | 92.3 | 49 | 48.5 |
| Cc1cc(Nc2cc(N3CCN(C)CC3)nc(/C=C/c3ccccc3)n2)n[nH]1 + C=C(c1ccc(C(=O)O)cc1)c1cc2c(cc1C)C(C)(C)CCC2(C)C [Bexarotene] (first compound 0.2 µM, partner dose 10 µM) | 80.2 | 68.8 | 80.3 | – | 158 | 85.9 | – | 87 | 97.6 | 80.5 |
| Cc1cn(-c2cc(NC(=O)c3ccc(C)c(Nc4nccc(-c5cccnc5)n4)c3)cc(C(F)(F)F)c2)cn1 [nilotinib] + CCc1ccc(CCOc2ccc(CC3SC(=O)NC3=O)cc2)nc1 [pioglitazone] (first compound 1 µM, partner dose 10 µM) | 104 | 109 | 134 | – | 215 | 99.2 | – | 84.2 | 86.5 | 91.4 |
| Cc1cn(-c2cc(NC(=O)c3ccc(C)c(Nc4nccc(-c5cccnc5)n4)c3)cc(C(F)(F)F)c2)cn1 [nilotinib] + COCC[n+]1c2c(n(Cc3cnccn3)c1C)C(=O)c1ccccc1C2=O [YM155] (first compound 1 µM, partner dose 0.002 µM) | 79.9 | 22.2 | 40.7 | 29.2 | – | 94.1 | 55.3 | 44.2 | 53.2 | 72 |
| CC(C)C[C@H](NC(=O)[C@H](Cc1ccccc1)NC(=O)c1cnccn1)B(O)O [Bortezomib] + CC1(C)NC(=O)N(c2ccc([N+](=O)[O-])c(C(F)(F)F)c2)C1=O [nilutamide] (first compound 0.005 µM, partner dose 5 µM) | 0.664 | 12.1 | 7.54 | – | 10.7 | 26.9 | – | 18 | 1.27 | 6.02 |
| COc1ccc(C2=N[C@@H](c3ccc(Cl)cc3)[C@@H](c3ccc(Cl)cc3)N2C(=O)N2CCNC(=O)C2)c(OC(C)C)c1 [Nutlin-3] + Cn1cc(/C=C2\C(=O)Nc3cccnc32)c2ccccc21 [GW441756] (first compound 0.5 µM, partner dose 2 µM) | 75.7 | 89.2 | 96.3 | 82.3 | 98.5 | 79 | 89.2 | 109 | 111 | 80.5 |
| COc1ccc(C2=N[C@@H](c3ccc(Cl)cc3)[C@@H](c3ccc(Cl)cc3)N2C(=O)N2CCNC(=O)C2)c(OC(C)C)c1 [Nutlin-3] + CCCCCCCCCCCC1=C(O)C(=O)C=C(O)C1=O [Embelin] (first compound 0.5 µM, partner dose 6 µM) | 74.7 | 92.9 | 101 | – | 48 | 79.2 | – | 102 | 96.3 | 73.9 |
| Cc1cn(-c2cc(NC(=O)c3ccc(C)c(Nc4nccc(-c5cccnc5)n4)c3)cc(C(F)(F)F)c2)cn1 [nilotinib] + Cn1cncc1[C@@](N)(c1ccc(Cl)cc1)c1ccc2c(c1)c(-c1cccc(Cl)c1)cc(=O)n2C [tipifarnib] (first compound 1 µM, partner dose 0.05 µM) | 83.8 | 93.1 | 84 | 74.6 | 82.5 | 86.4 | 117 | – | 87.3 | 74.4 |
| CC(C)C[C@H](NC(=O)[C@H](Cc1ccccc1)NC(=O)c1cnccn1)B(O)O [Bortezomib] + CO[C@H]1C[C@@H]2CC[C@@H](C)[C@@](O)(O2)C(=O)C(=O)N2CCCC[C@H]2C(=O)O[C@H]([C@H](C)C[C@@H]2CC[C@@H](OCCO)[C@H](OC)C2)CC(=O)[C@H](C)/C=C(\C)[C@@H](O)[C@@H](OC)C(=O)[C@H](C)C[C@H](C)/C=C/C=C/C=C/1C [everolimus] (first compound 0.005 µM, partner dose 0.1 µM) | 1.86 | 13.9 | 12.1 | 2.73 | 18.7 | 22.4 | 3.07 | 12.2 | 6.39 | 7.74 |

Source: the supplement of paper PMC4604168 (melanoma cell lines)
